# Measurements published in the supplement of paper PMC8728848.
# The list shows a part of the results.
# B1: Siglec-E (Mus musculus), Q91Y57 (protein)
# chain: MLLLLLLLLLWGIKGVEGQNPQEVFTLNVERKVVVQEGLCVLVPCNFSYLKKRLTDWTDSDPVHGFWYREGTDRRKDSIVATNNPIRKAVKETRNRFFLLGDPWRNDCSLNIREIRKKDAGLYFFRLERGKTKYNYMWDKMTLVVTALTNTPQILLPETLEAGHPSNLTCSVPWDCGWTAPPIFSWTGTSVSFLSTNTTGSSVLTITPQPQDHGTNLTCQVTLPGTNVSTRMTTRLNVSYAPKNLTVTIYQGADSVSTILKNGSSLPISEGQSLRLICSTDSYPPANLSWSWDNLTLCPSKLSKPGLLELFPVHLKHGGVYTCQAQHALGSQHISLSLSPQSSATLSEMMMGTFVGSGVTALLFLSVCILLLAVRSYRRKPARPAVVAPHPDALKVSVSQNPLVESQADDSSEPLPSILEAAPSSTEEEIHYATLSFHEMKPMNLWGQQDTTTEYSEIKFPQRTAWP
# How the values were obtained:
# Test in all cases: glycan array binding signal (z-score within array); higher = stronger binding
# Conditions in all cases: glycan notation: IUPAC condensed, linker removed
# [1] = biological target: Gal(b1-4)GlcNAc(b1-2)[Gal(b1-4)GlcNAc(b1-6)]Man(a1-6)[Gal(b1-4)GlcNAc(b1-2)Man(a1-3)]Man(b1-4)GlcNAc(b1-4)[Fuc(a1-6)]GlcNAc
# Summary of the method: (§1)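 Arrays were curated from the Consortium for Functional Glycomics database, 3228 in total, and kept only where the protein sequence was available. Binding is expressed as a within-array Z-score. This score was averaged across arrays of the same protein sequence at different concentrations or buffers and across linkers, and negative values can be read as non-binding.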
# [2] = biological target: Gal(b1-4)GlcNAc(b1-2)[Gal(b1-4)GlcNAc(b1-6)]Man(a1-6)[GlcNAc(b1-4)][Gal(b1-4)GlcNAc(b1-2)Man(a1-3)]Man(b1-4)GlcNAc(b1-4)GlcNAc
# Summary of the method: as §1
# [3] = biological target: Gal(b1-4)GlcNAc(b1-2)[Gal(b1-4)GlcNAc(b1-6)]Man(a1-6)[GlcNAc(b1-4)][Gal(b1-4)GlcNAc(b1-2)[Gal(b1-4)GlcNAc(b1-4)]Man(a1-3)]Man(b1-4)GlcNAc(b1-4)[Fuc(a1-6)]GlcNAc
# Summary of the method: as §1
# [4] = biological target: Gal(b1-4)GlcNAc(b1-3)Gal(b1-3)GalNAc
# Summary of the method: as §1
# [5] = biological target: Gal(b1-4)GlcNAc(b1-3)Gal(b1-3)GlcNAc
# Summary of the method: as §1
# [6] = biological target: Gal(b1-4)GlcNAc(b1-3)Gal(b1-4)Glc
# Summary of the method: as §1
# [7] = biological target: Gal(b1-4)GlcNAc(b1-3)Gal(b1-4)GlcNAc
# Summary of the method: as §1
# [8] = biological target: Gal(b1-4)GlcNAc(b1-3)Gal(b1-4)GlcNAc(b1-2)Man(a1-3)[Gal(b1-4)GlcNAc(b1-3)Gal(b1-4)GlcNAc(b1-2)Man(a1-6)]Man(b1-4)GlcNAc(b1-4)GlcNAc
# Summary of the method: as §1
# [9] = biological target: Gal(b1-4)GlcNAc(b1-3)Gal(b1-4)GlcNAc(b1-2)Man(a1-3)[Gal(b1-4)GlcNAc(b1-3)Gal(b1-4)GlcNAc(b1-2)Man(a1-6)]Man(b1-4)GlcNAc(b1-4)[Fuc(a1-6)]GlcNAc
# Summary of the method: as §1
# [10] = biological target: Gal(b1-4)GlcNAc(b1-3)Gal(b1-4)GlcNAc(b1-2)[Gal(b1-4)GlcNAc(b1-3)Gal(b1-4)GlcNAc(b1-6)]Man(a1-6)[Gal(b1-4)GlcNAc(b1-3)Gal(b1-4)GlcNAc(b1-2)Man(a1-3)]Man(b1-4)GlcNAc(b1-4)GlcNAc
# Summary of the method: as §1
# [11] = biological target: Gal(b1-4)GlcNAc(b1-3)Gal(b1-4)GlcNAc(b1-2)[Gal(b1-4)GlcNAc(b1-3)Gal(b1-4)GlcNAc(b1-6)]Man(a1-6)[Gal(b1-4)GlcNAc(b1-3)Gal(b1-4)GlcNAc(b1-2)Man(a1-3)]Man(b1-4)GlcNAc(b1-4)[Fuc(a1-6)]GlcNAc
# Summary of the method: as §1
# [12] = biological target: Gal(b1-4)GlcNAc(b1-3)Gal(b1-4)GlcNAc(b1-3)Gal(b1-4)GlcNAc
# Summary of the method: as §1
# [13] = biological target: Gal(b1-4)GlcNAc(b1-3)Gal(b1-4)GlcNAc(b1-3)Gal(b1-4)GlcNAc(b1-2)Man(a1-3)[Gal(b1-4)GlcNAc(b1-3)Gal(b1-4)GlcNAc(b1-3)Gal(b1-4)GlcNAc(b1-2)Man(a1-6)]Man(b1-4)GlcNAc(b1-4)GlcNAc
# Summary of the method: as §1
# [14] = biological target: Gal(b1-4)GlcNAc(b1-3)Gal(b1-4)GlcNAc(b1-3)Gal(b1-4)GlcNAc(b1-2)Man(a1-3)[Gal(b1-4)GlcNAc(b1-3)Gal(b1-4)GlcNAc(b1-3)Gal(b1-4)GlcNAc(b1-2)Man(a1-6)]Man(b1-4)GlcNAc(b1-4)[Fuc(a1-6)]GlcNAc
# Summary of the method: as §1
# [15] = biological target: Gal(b1-4)GlcNAc(b1-3)Gal(b1-4)GlcNAc(b1-3)Gal(b1-4)GlcNAc(b1-2)[Gal(b1-4)GlcNAc(b1-3)Gal(b1-4)GlcNAc(b1-3)Gal(b1-4)GlcNAc(b1-6)]Man(a1-6)[Gal(b1-4)GlcNAc(b1-3)Gal(b1-4)GlcNAc(b1-3)Gal(b1-4)GlcNAc(b1-2)Man(a1-3)]Man(b1-4)GlcNAc(b1-4)[Fuc(a1-6)]GlcNAc
# Summary of the method: as §1
# [16] = biological target: Gal(b1-4)GlcNAc(b1-3)Gal(b1-4)GlcNAc(b1-3)Gal(b1-4)GlcNAc(b1-3)Gal(b1-4)GlcNAc(b1-2)Man(a1-3)[Gal(b1-4)GlcNAc(b1-3)Gal(b1-4)GlcNAc(b1-3)Gal(b1-4)GlcNAc(b1-3)Gal(b1-4)GlcNAc(b1-2)Man(a1-6)]Man(b1-4)GlcNAc(b1-4)GlcNAc
# Summary of the method: as §1
# [17] = biological target: Gal(b1-4)GlcNAc(b1-3)Gal(b1-4)GlcNAc(b1-3)Gal(b1-4)GlcNAc(b1-3)Gal(b1-4)GlcNAc(b1-2)Man(a1-3)[Gal(b1-4)GlcNAc(b1-3)Gal(b1-4)GlcNAc(b1-3)Gal(b1-4)GlcNAc(b1-3)Gal(b1-4)GlcNAc(b1-2)Man(a1-6)]Man(b1-4)GlcNAc(b1-4)[Fuc(a1-6)]GlcNAc
# Summary of the method: as §1
# [18] = biological target: Gal(b1-4)GlcNAc(b1-3)Gal(b1-4)GlcNAc(b1-3)Gal(b1-4)GlcNAc(b1-3)Gal(b1-4)GlcNAc(b1-2)[Gal(b1-4)GlcNAc(b1-3)Gal(b1-4)GlcNAc(b1-3)Gal(b1-4)GlcNAc(b1-3)Gal(b1-4)GlcNAc(b1-6)]Man(a1-6)[Gal(b1-4)GlcNAc(b1-3)Gal(b1-4)GlcNAc(b1-3)Gal(b1-4)GlcNAc(b1-3)Gal(b1-4)GlcNAc(b1-2)Man(a1-3)]Man(b1-4)GlcNAc(b1-4)[Fuc(a1-6)]GlcNAc
# Summary of the method: as §1
# [19] = biological target: Gal(b1-4)GlcNAc(b1-3)Gal(b1-4)GlcNAc(b1-3)Gal(b1-4)GlcNAc(b1-3)Gal(b1-4)GlcNAc(b1-3)Gal(b1-4)GlcNAc(b1-2)Man(a1-3)[Gal(b1-4)GlcNAc(b1-3)Gal(b1-4)GlcNAc(b1-3)Gal(b1-4)GlcNAc(b1-3)Gal(b1-4)GlcNAc(b1-3)Gal(b1-4)GlcNAc(b1-2)Man(a1-6)]Man(b1-4)GlcNAc(b1-4)GlcNAc
# Summary of the method: as §1
# [20] = biological target: Gal(b1-4)GlcNAc(b1-3)Gal(b1-4)GlcNAc(b1-3)Gal(b1-4)GlcNAc(b1-3)Gal(b1-4)GlcNAc(b1-3)Gal(b1-4)GlcNAc(b1-2)Man(a1-3)[Gal(b1-4)GlcNAc(b1-3)Gal(b1-4)GlcNAc(b1-3)Gal(b1-4)GlcNAc(b1-3)Gal(b1-4)GlcNAc(b1-3)Gal(b1-4)GlcNAc(b1-2)Man(a1-6)]Man(b1-4)GlcNAc(b1-4)[Fuc(a1-6)]GlcNAc
# Summary of the method: as §1
# [21] = biological target: Gal(b1-4)GlcNAc(b1-3)Gal(b1-4)GlcNAc(b1-3)Gal(b1-4)GlcNAc(b1-3)Gal(b1-4)GlcNAc(b1-3)Gal(b1-4)GlcNAc(b1-2)[Gal(b1-4)GlcNAc(b1-3)Gal(b1-4)GlcNAc(b1-3)Gal(b1-4)GlcNAc(b1-3)Gal(b1-4)GlcNAc(b1-3)Gal(b1-4)GlcNAc(b1-6)]Man(a1-6)[Gal(b1-4)GlcNAc(b1-3)Gal(b1-4)GlcNAc(b1-3)Gal(b1-4)GlcNAc(b1-3)Gal(b1-4)GlcNAc(b1-3)Gal(b1-4)GlcNAc(b1-2)Man(a1-3)]Man(b1-4)GlcNAc(b1-4)[Fuc(a1-6)]GlcNAc
# Summary of the method: as §1
# [22] = biological target: Gal(b1-4)GlcNAc(b1-3)Gal(b1-4)GlcNAc(b1-3)Gal(b1-4)GlcNAc(b1-3)Gal(b1-4)GlcNAc(b1-3)Gal(b1-4)GlcNAc(b1-3)Gal(b1-4)GlcNAc(b1-2)Man(a1-3)[Gal(b1-4)GlcNAc(b1-3)Gal(b1-4)GlcNAc(b1-3)Gal(b1-4)GlcNAc(b1-3)Gal(b1-4)GlcNAc(b1-3)Gal(b1-4)GlcNAc(b1-3)Gal(b1-4)GlcNAc(b1-2)Man(a1-6)]Man(b1-4)GlcNAc(b1-4)GlcNAc
# Summary of the method: as §1
# [23] = biological target: Gal(b1-4)GlcNAc(b1-3)Gal(b1-4)GlcNAc(b1-3)GalNAc
# Summary of the method: as §1
binder,measurement,setting,value
B1,glycan array binding signal (z-score),[1],0.444
same,glycan array binding signal (z-score),[2],-0.367
same,glycan array binding signal (z-score),[3],-0.331
same,glycan array binding signal (z-score),[4],-0.224
same,glycan array binding signal (z-score),[5],-0.527
same,glycan array binding signal (z-score),[6],-0.128
same,glycan array binding signal (z-score),[7],-0.523
same,glycan array binding signal (z-score),[8],0.558
same,glycan array binding signal (z-score),[9],-0.314
same,glycan array binding signal (z-score),[10],0.554
same,glycan array binding signal (z-score),[11],-0.445
same,glycan array binding signal (z-score),[12],-0.413
same,glycan array binding signal (z-score),[13],-0.064
same,glycan array binding signal (z-score),[14],-0.527
same,glycan array binding signal (z-score),[15],-0.364
same,glycan array binding signal (z-score),[16],-0.507
same,glycan array binding signal (z-score),[17],-0.365
same,glycan array binding signal (z-score),[18],-0.399
same,glycan array binding signal (z-score),[19],-0.53
same,glycan array binding signal (z-score),[20],0.998
same,glycan array binding signal (z-score),[21],-0.46
same,glycan array binding signal (z-score),[22],-0.356
same,glycan array binding signal (z-score),[23],0.327
